Data taken from PubChem BioAssay (Tox21).
Several values for one entry are separate records, joined by “and”; a condition that tells them apart may be missing. Equal entries are not always repeated. This list was built around the results that the source calls inconclusive (neither active nor inactive); the mix of calls is not that of the screen. For part of these data: Potencies beside an inconclusive call are fits to weak or partial responses and may not hold up. Activity calls are given as the source filed them. Unless noted, calls follow the shape of the dose curve; as a rule, active = well fitted curve in the direction sought with a large enough effect in the repeat runs; inconclusive = weak or mixed curves; inactive = no such curve, though single readings can be large; an effect the other way counts as inactive or inconclusive.

Experiments:
[1] = qHTS assay to identify small molecule antagonists of the estrogen related receptor (ERR) signaling pathway - cell viability counter screen (AID 1224818)
In short: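 Viability of ERR cells, CellTiter-Fluor fluorescence; 17.5 h compound exposure at 37 C, DMSO vehicle; 30 min reagent incubation at 37 C/5% CO2.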

[2] = qHTS assay to identify small molecule antagonists of the estrogen related receptor (ERR) signaling pathway (AID 1224819; also: nearly all actives have a fitted effect of over 50% in size)
In short: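 Seed ERR cells 2,000/well; rest 6 h at 37 C/5% CO2; pin compounds in DMSO; incubate 18 h at 37 C; add One-Glo; wait 30 min at room temperature; measure luminescence.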

[3] = qHTS assay to identify small molecule antagonists of the estrogen related receptor (ERR) signaling pathway from Tox21 library - cell viability counter screen (AID 1224834); also: nearly all actives have a fitted effect of over 30% in size
In short: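 Counter screen run in ERR cells (2,000 cells/well): cells pre-incubated 6 h, then treated with compounds for 17.5 h at 37 C. Fluorescence was read 30 min after CellTiter-Fluor addition.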

[4] = qHTS assay to identify small molecule antagonists of the estrogen related receptor signaling pathway with the pleiotropic PPARgamma coactivator (PGC) cell viability counter screen (AID 1224822)
In short: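 17.5 h compound treatment of PGC/ERR cells at 37 C; readout CellTiter-Fluor fluorescence; run alongside the PGC/ERR antagonist screen to flag cytotoxic compounds.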

[5] = biological target: Luciferin 4-monooxygenase (Photinus pyralis) (UniProt P08659); test: qHTS assay to identify small molecule inhibitors of firefly luciferase (AID 1224835); also: nearly all actives have a fitted effect of over 25% in size
UniProt P08659, sequence (P08659 whole entry, looked up): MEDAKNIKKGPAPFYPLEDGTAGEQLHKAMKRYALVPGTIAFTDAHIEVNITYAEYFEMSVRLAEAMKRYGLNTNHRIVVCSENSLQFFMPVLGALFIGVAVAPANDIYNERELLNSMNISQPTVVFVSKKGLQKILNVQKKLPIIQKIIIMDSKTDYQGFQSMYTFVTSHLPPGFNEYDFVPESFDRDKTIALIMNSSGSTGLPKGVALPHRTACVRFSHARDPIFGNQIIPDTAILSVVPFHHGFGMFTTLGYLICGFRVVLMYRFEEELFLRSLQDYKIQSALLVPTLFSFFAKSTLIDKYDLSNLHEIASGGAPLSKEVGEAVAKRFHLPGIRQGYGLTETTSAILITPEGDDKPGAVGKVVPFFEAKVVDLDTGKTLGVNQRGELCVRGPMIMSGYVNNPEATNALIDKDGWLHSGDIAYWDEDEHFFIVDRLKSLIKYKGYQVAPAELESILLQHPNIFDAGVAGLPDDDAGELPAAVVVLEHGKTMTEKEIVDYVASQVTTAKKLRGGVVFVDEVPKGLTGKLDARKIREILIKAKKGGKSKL
In short: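 Quantitative HTS format; KM concentrations of both substrates. Purified P. pyralis FLuc activity quantified from luminescence images.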

[6] = qHTS assay to identify small molecule agonists of the constitutive androstane receptor (CAR) signaling pathway - cell viability counter screen (AID 1224836); also: nearly all actives have a fitted effect of over 45% in size
In short: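 HepG2-CYP2B6-hCAR, 2500 cells/well, 4 h pre-incubation; cpd 15 conc + PK11195 0.75 uM final; 23 h, 37 C/5% CO2; CellTiter-Fluor, fluorescence.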

[7] = qHTS assay to identify small molecule agonists of the estrogen related receptor (ERR) signaling pathway (AID 1224820)
In short: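 Luminescence readout (One-Glo, 30 min RT) from NTP-supplied ERR cell line exposed to compounds for 18 h at 37 C. Cells seeded 2,000 per well and pre-incubated 6 h before pin-tool compound transfer.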

[8] = qHTS assay to identify small molecule antagonists of the constitutive androstane receptor (CAR) signaling pathway - cell viability counter screen (AID 1224837); also: nearly all actives have a fitted effect of over 45% in size
In short: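 CITCO at 50 nM final was added alongside compounds (15 concentrations) to double-stable hCAR/CYP2B6-2.2kb HepG2 cells. Following 23 hr at 37 C, cell viability was quantified by CellTiter-Fluor fluorescence intensity.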

[9] = tested on: estrogen-related receptor alpha (ERRalpha) with PGC-1alpha coactivator, human; test: qHTS assay to identify small molecule antagonists of the estrogen related receptor signaling pathway with the pleiotropic PPARgamma coactivator (PGC) (AID 1224821; calls by dose curve; also: nearly all actives have a fitted effect of over 50% in size)
In short: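 PGC/ERR reporter cells; 6 h pre-incubation 37 C/5% CO2; pin-tool compound in DMSO, 18 h 37 C; One-Glo added, 30 min RT; luminescence read. qHTS antagonist mode.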

[10] = qHTS assay to identify small molecule agonists of the estrogen related receptor signaling pathway with the pleiotropic PPARgamma coactivator (PGC) (AID 1224823); settings: ERR/PGC reporter cell line, luciferase agonist mode
In short: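 Luminescence readout (One-Glo, 30 min RT) from PGC/ERR cell line treated 18 h at 37 C with pin-tool-delivered DMSO compound solutions; cells plated 6 h before dosing. Quantitative HTS format.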
Potency is read from the fitted curve at half-maximal effect; tags tell the direction and shape of the fitted curve.

For `O=P1(N(CCCl)CCCl)NCCCO1` (centres undefined), the Potency [1] was “inactive” and the Potency [2] was “inactive”.

With `Nc1ccccc1C(=O)OC/C=C/c1ccccc1` the Potency [3] was inconclusive: 77.1 µM [cytotoxic, partial curve, poor fit].

For `Nc1ccc(Cl)c(Cl)c1`, the Potency [3] was inconclusive: 21.7 µM [cytotoxic, full curve].

In the case of `O=C1NCN(c2ccccc2)C12CCN(CCCOc1ccc(F)cc1)CC2`, the Potency [3] is reported as inconclusive: 23.7 µM [cytotoxic, partial curve].

With `O=C(O)COc1cc(Cl)c(Cl)cc1Cl` the Potency [3] was “inactive”.

For `CCC1(c2ccc(N)cc2)CCC(=O)NC1=O` (centres undefined), the Potency [1] was “inactive” and the Potency [3] was “inactive”.

With `ClC1=C(Cl)[C@]2(Cl)[C@H]3[C@H]([C@H]4C=C[C@H]3C4)[C@@]1(Cl)C2(Cl)Cl` the Potency [3] was inconclusive: 48.6 µM [cytotoxic, partial curve].

For `Nc1ccc(Sc2ccc(N)cc2)cc1`, the Potency [2] was inconclusive: 38.6 µM [inhibitor, partial curve, poor fit], the Potency [4] was “inactive” and the Potency [3] was inconclusive: 48.6 µM [cytotoxic, partial curve, poor fit]. The Potency [5] was inconclusive: 35.6 µM [inhibitor, partial curve].

With `COC(=O)N(C(=O)N1COC2(C(=O)OC)Cc3cc(Cl)ccc3C2=N1)c1ccc(OC(F)(F)F)cc1` (centres undefined) the Potency [3] was inconclusive: 33.5 µM [cytotoxic, partial curve, poor fit].

With `CCCCCCCCCBr` the Potency [3] was “inactive”.

For `CC(C)N(CCC(C(N)=O)(c1ccccc1)c1ccccn1)C(C)C` (centres undefined), the Potency [1] was “inactive” and the Potency [6] was “inactive”.

With `c1ccc2c(c1)Nc1ccccc1S2` the Potency [2] was “inactive”, the Potency [7] was “inactive” and the Potency [3] was inconclusive: 68.6 µM [cytotoxic, single point] and inconclusive: 2.98 µM [cytotoxic, single point]. For the same molecule, the Potency [5] was inconclusive: 39.9 µM [inhibitor, partial curve] and inconclusive: 43.6 µM [inhibitor, partial curve, poor fit] and the Potency [6] was “inactive”.

For `O=C(O)c1nn(Cc2ccc(Cl)cc2Cl)c2ccccc12`, the Potency [2] was “inactive”.

In the case of `N#CCCl`, the Potency [3] is reported as inconclusive: 80.2 µM [cytotoxic, single point].

In the case of `O=c1[nH]c2ccccc2n1CCCN1CCC(n2c(=O)[nH]c3cc(Cl)ccc32)CC1`, the Potency [1] is reported as inconclusive: 27.6 µM [cytotoxic], the Potency [4] is reported as active: 23.7 µM and the Potency [6] is reported as inconclusive: 18.8 µM [cytotoxic, partial curve, poor fit]. The Potency [8] was inconclusive: 23.7 µM [cytotoxic, partial curve].

For `NC(=O)CI`, the Potency [9] was active: 11.9 µM and the Potency [4] was active: 12.3 µM.

For `c1ccc2c(c1)OCC(C1=NCCN1)O2` (centres undefined), the Potency [1] was inconclusive: 33.5 µM [cytotoxic, partial curve, poor fit].

With `C=CC(=O)NCNC(=O)C=C` the Potency [7] was inconclusive: 30.6 µM [activator].

With `Cc1ncc(CNC(=O)N(CCCl)N=O)c(N)n1` the Potency [1] was “inactive”.

For `O=C1NCN(c2ccccc2)C12CCN(CC1COc3ccccc3O1)CC2` (centres undefined), the Potency [2] was inconclusive: 22 µM [inhibitor], the Potency [9] was inconclusive: 31.6 µM [inhibitor] and the Potency [4] was inconclusive: 33.5 µM [cytotoxic]. The Potency [3] was inconclusive: 16.8 µM [cytotoxic, single point].

In the case of `CN1C[C@H](CNC(=O)OCc2ccccc2)C[C@@H]2c3cccc4c3c(cn4C)C[C@H]21`, the Potency [1] is reported as inconclusive: 23.7 µM [cytotoxic], the Potency [4] is reported as inconclusive: 22.8 µM [cytotoxic] and the Potency [3] is reported as inconclusive: 33.5 µM [cytotoxic, partial curve].

With `Nc1ccc(N=Nc2ccccc2)cc1` the Potency [1] was active: 31.8 µM, the Potency [7] was active: 10.1 µM and the Potency [4] was inconclusive: 29.5 µM [cytotoxic]. The Potency [10] was active: 14.2 µM, the Potency [5] was active: 2.24 µM and the Potency [6] was inconclusive: 1.54 µM [cytotoxic, full curve, poor fit]. The Potency [8] was inconclusive: 0.969 µM [cytotoxic, full curve, poor fit].

With `O=S(=O)(O)C(F)(F)C(F)(F)C(F)(F)C(F)(F)F` the Potency [1] was “inactive”.

In the case of `Nc1ccc(Cl)cc1`, the Potency [4] is reported as “inactive” and the Potency [3] is reported as inconclusive: 7.7 µM [cytotoxic, full curve] and inconclusive: 13.7 µM [cytotoxic, full curve] and inconclusive: 9.86 µM [cytotoxic, full curve].

In the case of `Nc1cccc2ccccc12`, the Potency [3] is reported as inconclusive: 77.4 µM [cytotoxic, single point].

For `O=[N+]([O-])c1cccc2cccc([N+](=O)[O-])c12`, the Potency [3] was inconclusive: 68.9 µM [cytotoxic, single point].

With `CCOCCOC(C)=O` the Potency [7] was “inactive” and the Potency [6] was “inactive”.
